In FireProtDB (doi:10.1021/bi00135a022):

Settings: Escherichia coli (strain K12), pH 7, DSC, reversible: yes
[1] = 25 °C, Thermal, phosphate 0.01 M, NaCl 0.1 M
[2] = 25 °C, Urea, MOPS 0.05 M, NaCl 0.5 M
[3] = Thermal, phosphate 0.01 M, NaCl 0.1 M

**Q.** With “Thioredoxin 1 wild type (sequence left out)” as the substance, how does the denaturant m value (25 °C, GdnHCl, MOPS 0.05 M) read?
**A.** The denaturant m value was 3.51 kcal/mol/M.

**Q.** What about the “denaturant midpoint (higher = more stable)” value (25 °C, GdnHCl, MOPS 0.05 M) of the same substance?
**A.** Its value is 2.22 M.

**Q.** And the unfolding free energy (25 °C, GdnHCl, MOPS 0.05 M)?
**A.** The unfolding free energy was 7.8 kcal/mol.

**Q.** What about the “heat capacity change of unfolding” value [1] of the same substance?
**A.** Its value is 1.66 kcal/mol/K.

**Q.** And the unfolding free energy [1]?
**A.** The unfolding free energy was 8.9 kcal/mol.

**Q.** And the denaturant m value [2]?
**A.** Its denaturant m value is 1.32 kcal/mol/M.

**Q.** What about the “denaturant midpoint (higher = more stable)” value [2] of the same substance?
**A.** Its value is 6.57 M.

**Q.** What about the unfolding free energy [2] of the same substance?
**A.** Its unfolding free energy is 8.6 kcal/mol.

**Q.** What about the Tm [3] of the same substance?
**A.** Its Tm is 87 °C.

**Q.** And the “unfolding enthalpy (calorimetric)” value [3]?
**A.** Its value is 107 kcal/mol.
